{"source": "paper PMC12820563", "about": "“FoxP3 forms a head-to-head dimer in vivo and stabilizes its multimerization on adjacent microsatellites”", "note": "Some of the results follow."}
{"target": "T1, MBP-FoxP1dN (Mus musculus, UniProt P58462 326-579)", "T1 sequence": "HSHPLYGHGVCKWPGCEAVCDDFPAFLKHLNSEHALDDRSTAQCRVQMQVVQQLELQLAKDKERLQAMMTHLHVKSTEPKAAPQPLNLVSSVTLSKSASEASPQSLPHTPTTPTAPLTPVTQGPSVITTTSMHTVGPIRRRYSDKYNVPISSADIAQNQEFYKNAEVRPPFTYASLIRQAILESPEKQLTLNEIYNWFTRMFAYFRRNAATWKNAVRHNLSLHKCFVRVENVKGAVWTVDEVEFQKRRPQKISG", "assay": "PD-seq (MBP pull-down with sequencing); 20 mM Tris-HCl pH 7.5, 100 mM NaCl, 1.5 mM MgCl2, 0.4 uM protein, 0.1 uM dsDNA library, 30 min, room temperature, amylose pull-down; high values mean tight binding", "conditions": "protein: recombinant; tags: His6-MBP; chain copies: 2; dsDNA, one strand shown", "method_in_brief": "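In Tris pH 7.5 buffer with NaCl and MgCl2, 0.4 µM His6-MBP-tagged mouse FoxP3 or FoxP1 fragment lacking the N-terminus, from E. coli, met 0.1 µM Klenow-filled double-stranded degenerate DNA library for 30 min at room temperature. Three washes on amylose resin followed capture of the complexes, then proteinase K release of DNA, PCR barcoding and Illumina sequencing. Binding is taken as pooled-replicate reads-per-million enrichment of pull-down relative to input.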"}
{"sequence": "GATGATTGTTCTCCCAGCTGATGAATTCCTGGACTCGAGTAAACAAATTTTCCTAATCTTTCTGTTCAAGCGCCATCTAC", "binding signal": "0.754 RPM ratio (pull-down/input)"}
{"sequence": "GATGATTGTTCTCCCAGCTGATGAATTACTGTCTTCGAGTAAACAAATTTTCCTAATCTTTCTGTTCAAGCGCCATCTAC", "binding signal": "1.01 RPM ratio (pull-down/input)"}
{"sequence": "GATGATTGTTCTCCCAGCTGATGAATTAAGACTGTCGAGTAAACAAATTTTCCTAATCTTTCTGTTCAAGCGCCATCTAC", "binding signal": "0.825 RPM ratio (pull-down/input)"}
{"sequence": "GATGATTGTTCTCCCAGCTGATGAATTAGAGTGATCGAGTAAACAAATTTTCCTAATCTTTCTGTTCAAGCGCCATCTAC", "binding signal": "0.893 RPM ratio (pull-down/input)"}
{"sequence": "GATGATTGTTCTCCCAGCTGATGAATTTCCCAGGTCGAGTAAACAAATTTTCCTAATCTTTCTGTTCAAGCGCCATCTAC", "binding signal": "0.75 RPM ratio (pull-down/input)"}
{"sequence": "GATGATTGTTCTCCCAGCTGATGAATTAAAACAGTCGAGTAAACAAATTTTCCTAATCTTTCTGTTCAAGCGCCATCTAC", "binding signal": "1.07 RPM ratio (pull-down/input)"}
{"sequence": "GATGATTGTTCTCCCAGCTGATGAATTATGCATCTCGAGTAAACAAATTTTCCTAATCTTTCTGTTCAAGCGCCATCTAC", "binding signal": "1.59 RPM ratio (pull-down/input)"}
{"sequence": "GATGATTGTTCTCCCAGCTGATGAATTAAGGCAATCGAGTAAACAAATTTTCCTAATCTTTCTGTTCAAGCGCCATCTAC", "binding signal": "1.1 RPM ratio (pull-down/input)"}
{"sequence": "GATGATTGTTCTCCCAGCTGATGAATTAATCTAATCGAGTAAACAAATTTTCCTAATCTTTCTGTTCAAGCGCCATCTAC", "binding signal": "1.1 RPM ratio (pull-down/input)"}
{"sequence": "GATGATTGTTCTCCCAGCTGATGAATTAACTATCTCGAGTAAACAAATTTTCCTAATCTTTCTGTTCAAGCGCCATCTAC", "binding signal": "0.809 RPM ratio (pull-down/input)"}
{"sequence": "GATGATTGTTCTCCCAGCTGATGAATTAAATCTCTCGAGTAAACAAATTTTCCTAATCTTTCTGTTCAAGCGCCATCTAC", "binding signal": "0.904 RPM ratio (pull-down/input)"}
{"sequence": "GATGATTGTTCTCCCAGCTGATGAATTGGCCCGGTCGAGTAAACAAATTTTCCTAATCTTTCTGTTCAAGCGCCATCTAC", "binding signal": "0.753 RPM ratio (pull-down/input)"}
{"sequence": "GATGATTGTTCTCCCAGCTGATGAATTCGTAGCGTCGAGTAAACAAATTTTCCTAATCTTTCTGTTCAAGCGCCATCTAC", "binding signal": "0.879 RPM ratio (pull-down/input)"}
{"sequence": "GATGATTGTTCTCCCAGCTGATGAATTTATTGTCTCGAGTAAACAAATTTTCCTAATCTTTCTGTTCAAGCGCCATCTAC", "binding signal": "1.78 RPM ratio (pull-down/input)"}
{"sequence": "GATGATTGTTCTCCCAGCTGATGAATTAGAGCGCTCGAGTAAACAAATTTTCCTAATCTTTCTGTTCAAGCGCCATCTAC", "binding signal": "0.836 RPM ratio (pull-down/input)"}
{"sequence": "GATGATTGTTCTCCCAGCTGATGAATTTGGCATATCGAGTAAACAAATTTTCCTAATCTTTCTGTTCAAGCGCCATCTAC", "binding signal": "1.02 RPM ratio (pull-down/input)"}
{"sequence": "GATGATTGTTCTCCCAGCTGATGAATTTGGCTTATCGAGTAAACAAATTTTCCTAATCTTTCTGTTCAAGCGCCATCTAC", "binding signal": "1.03 RPM ratio (pull-down/input)"}
{"sequence": "GATGATTGTTCTCCCAGCTGATGAATTTAGTATCTCGAGTAAACAAATTTTCCTAATCTTTCTGTTCAAGCGCCATCTAC", "binding signal": "1.01 RPM ratio (pull-down/input)"}
{"sequence": "GATGATTGTTCTCCCAGCTGATGAATTGGGTGTGTCGAGTAAACAAATTTTCCTAATCTTTCTGTTCAAGCGCCATCTAC", "binding signal": "0.964 RPM ratio (pull-down/input)"}
{"sequence": "GATGATTGTTCTCCCAGCTGATGAATTTGTACACTCGAGTAAACAAATTTTCCTAATCTTTCTGTTCAAGCGCCATCTAC", "binding signal": "1.39 RPM ratio (pull-down/input)"}
{"sequence": "GATGATTGTTCTCCCAGCTGATGAATTGGATCTCTCGAGTAAACAAATTTTCCTAATCTTTCTGTTCAAGCGCCATCTAC", "binding signal": "0.78 RPM ratio (pull-down/input)"}
{"sequence": "GATGATTGTTCTCCCAGCTGATGAATTTCGTGAATCGAGTAAACAAATTTTCCTAATCTTTCTGTTCAAGCGCCATCTAC", "binding signal": "0.976 RPM ratio (pull-down/input)"}
{"sequence": "GATGATTGTTCTCCCAGCTGATGAATTCGCAGTATCGAGTAAACAAATTTTCCTAATCTTTCTGTTCAAGCGCCATCTAC", "binding signal": "0.928 RPM ratio (pull-down/input)"}
{"sequence": "GATGATTGTTCTCCCAGCTGATGAATTGACTTAATCGAGTAAACAAATTTTCCTAATCTTTCTGTTCAAGCGCCATCTAC", "binding signal": "1.22 RPM ratio (pull-down/input)"}
{"sequence": "GATGATTGTTCTCCCAGCTGATGAATTGCGGACTTCGAGTAAACAAATTTTCCTAATCTTTCTGTTCAAGCGCCATCTAC", "binding signal": "1.03 RPM ratio (pull-down/input)"}
{"sequence": "GATGATTGTTCTCCCAGCTGATGAATTTACGATGTCGAGTAAACAAATTTTCCTAATCTTTCTGTTCAAGCGCCATCTAC", "binding signal": "1.43 RPM ratio (pull-down/input)"}
{"sequence": "GATGATTGTTCTCCCAGCTGATGAATTGGTCATATCGAGTAAACAAATTTTCCTAATCTTTCTGTTCAAGCGCCATCTAC", "binding signal": "0.999 RPM ratio (pull-down/input)"}
{"sequence": "GATGATTGTTCTCCCAGCTGATGAATTAACCTCTTCGAGTAAACAAATTTTCCTAATCTTTCTGTTCAAGCGCCATCTAC", "binding signal": "0.882 RPM ratio (pull-down/input)"}
{"sequence": "GATGATTGTTCTCCCAGCTGATGAATTTCCTTGATCGAGTAAACAAATTTTCCTAATCTTTCTGTTCAAGCGCCATCTAC", "binding signal": "0.863 RPM ratio (pull-down/input)"}
{"sequence": "GATGATTGTTCTCCCAGCTGATGAATTCATGTACTCGAGTAAACAAATTTTCCTAATCTTTCTGTTCAAGCGCCATCTAC", "binding signal": "1.03 RPM ratio (pull-down/input)"}
{"sequence": "GATGATTGTTCTCCCAGCTGATGAATTCGAAAATTCGAGTAAACAAATTTTCCTAATCTTTCTGTTCAAGCGCCATCTAC", "binding signal": "0.903 RPM ratio (pull-down/input)"}
{"sequence": "GATGATTGTTCTCCCAGCTGATGAATTGTACACCTCGAGTAAACAAATTTTCCTAATCTTTCTGTTCAAGCGCCATCTAC", "binding signal": "1.05 RPM ratio (pull-down/input)"}
{"sequence": "GATGATTGTTCTCCCAGCTGATGAATTAATTAGATCGAGTAAACAAATTTTCCTAATCTTTCTGTTCAAGCGCCATCTAC", "binding signal": "1.02 RPM ratio (pull-down/input)"}
{"sequence": "GATGATTGTTCTCCCAGCTGATGAATTTTCCGGCTCGAGTAAACAAATTTTCCTAATCTTTCTGTTCAAGCGCCATCTAC", "binding signal": "0.758 RPM ratio (pull-down/input)"}
{"sequence": "GATGATTGTTCTCCCAGCTGATGAATTCAGTGTATCGAGTAAACAAATTTTCCTAATCTTTCTGTTCAAGCGCCATCTAC", "binding signal": "1.17 RPM ratio (pull-down/input)"}
{"sequence": "GATGATTGTTCTCCCAGCTGATGAATTTAGGCGCTCGAGTAAACAAATTTTCCTAATCTTTCTGTTCAAGCGCCATCTAC", "binding signal": "0.917 RPM ratio (pull-down/input)"}
{"sequence": "GATGATTGTTCTCCCAGCTGATGAATTGGGCGAGTCGAGTAAACAAATTTTCCTAATCTTTCTGTTCAAGCGCCATCTAC", "binding signal": "0.889 RPM ratio (pull-down/input)"}
{"sequence": "GATGATTGTTCTCCCAGCTGATGAATTGGTGTTTTCGAGTAAACAAATTTTCCTAATCTTTCTGTTCAAGCGCCATCTAC", "binding signal": "2.65 RPM ratio (pull-down/input)"}
{"sequence": "GATGATTGTTCTCCCAGCTGATGAATTATGTATTTCGAGTAAACAAATTTTCCTAATCTTTCTGTTCAAGCGCCATCTAC", "binding signal": "1.32 RPM ratio (pull-down/input)"}
{"sequence": "GATGATTGTTCTCCCAGCTGATGAATTTGGCGATTCGAGTAAACAAATTTTCCTAATCTTTCTGTTCAAGCGCCATCTAC", "binding signal": "0.91 RPM ratio (pull-down/input)"}
